Experimental data from the supplement of paper PMC8728848.
The other results are listed elsewhere or left out.

Experiments:
Assay in all cases: glycan array binding signal (z-score within array); higher = stronger binding
Conditions in all cases: glycan notation: IUPAC condensed, linker removed
[1] = biological target: GlcNAc(b1-3)Gal(b1-4)GlcNAc(b1-3)Gal(b1-4)GlcNAc(b1-3)GalNAc
Outline: (§1)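 The binding signal is a Z-score computed within each array. Data were drawn from 3228 arrays in the Consortium for Functional Glycomics database, restricted to those with a known protein sequence. Scores were averaged over arrays of the same protein sequence at different concentrations or buffers, and over linkers, and negative values can be taken as non-binding.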

[2] = biological target: GlcNAc(b1-3)Gal(b1-4)GlcNAc(b1-3)GalNAc
Outline: as §1

[3] = biological target: GlcNAc(b1-3)Gal(b1-4)GlcNAc(b1-3)[GlcNAc(b1-3)Gal(b1-4)GlcNAc(b1-3)]GalNAc
Outline: as §1

[4] = biological target: GlcNAc(b1-3)Gal(b1-4)GlcNAc(b1-6)[Gal(b1-3)]GalNAc
Outline: as §1

[5] = biological target: GlcNAc(b1-3)Gal(b1-4)GlcNAc(b1-6)[GlcNAc(b1-3)Gal(b1-3)]GalNAc
Outline: as §1

[6] = biological target: GlcNAc(b1-3)Gal(b1-4)GlcNAc(b1-6)[GlcNAc(b1-3)]Gal(b1-4)GlcNAc
Outline: as §1

GlcNAc(b1-3)GalNAc = biological target: GlcNAc(b1-3)GalNAc
Outline: as §1

GlcNAc(b1-3)Man = biological target: GlcNAc(b1-3)Man
Outline: as §1

[7] = biological target: GlcNAc(b1-3)[GlcNAc(b1-4)][GlcNAc(b1-6)]GlcNAc
Outline: as §1

[8] = biological target: GlcNAc(b1-3)[GlcNAc(b1-6)]Gal(b1-4)GlcNAc
Outline: as §1

[9] = biological target: GlcNAc(b1-3)[GlcNAc(b1-6)]GalNAc
Outline: as §1

[10] = biological target: GlcNAc(b1-4)Gal(b1-4)GlcNAc
Outline: as §1

GlcNAc(b1-4)GlcNAc = biological target: GlcNAc(b1-4)GlcNAc
Outline: as §1

[11] = biological target: GlcNAc(b1-4)GlcNAc(b1-4)GlcNAc
Outline: as §1

[12] = biological target: GlcNAc(b1-4)GlcNAc(b1-4)GlcNAc(b1-4)GlcNAc(b1-4)GlcNAc
Outline: as §1

[13] = biological target: GlcNAc(b1-4)GlcNAc(b1-4)GlcNAc(b1-4)GlcNAc(b1-4)GlcNAc(b1-4)GlcNAc
Outline: as §1

[14] = biological target: GlcNAc(b1-4)[GlcNAc(b1-6)]GalNAc
Outline: as §1

[15] = biological target: GlcNAc(b1-6)Gal(b1-4)GlcNAc
Outline: as §1

GlcNAc(b1-6)GalNAc = biological target: GlcNAc(b1-6)GalNAc
Outline: as §1

[16] = biological target: GlcNAc6S(b1-3)Gal(b1-4)GlcNAc
Outline: as §1

Kdn(a2-3)Gal(b1-3)GalNAc = biological target: Kdn(a2-3)Gal(b1-3)GalNAc
Outline: as §1

Kdn(a2-3)Gal(b1-3)GlcNAc = biological target: Kdn(a2-3)Gal(b1-3)GlcNAc
Outline: as §1

Kdn(a2-3)Gal(b1-4)Glc = biological target: Kdn(a2-3)Gal(b1-4)Glc
Outline: as §1

Kdn(a2-3)Gal(b1-4)GlcNAc = biological target: Kdn(a2-3)Gal(b1-4)GlcNAc
Outline: as §1

[17] = biological target: Kdn(a2-3)Gal(b1-4)[Fuc(a1-3)]GlcNAc
Outline: as §1

Kdn(a2-6)Gal(b1-4)GlcNAc = biological target: Kdn(a2-6)Gal(b1-4)GlcNAc
Outline: as §1

[18] = biological target: Man(a1-2)Man(a1-2)Man(a1-3)Man
Outline: as §1

[19] = biological target: Man(a1-2)Man(a1-2)Man(a1-6)[Man(a1-3)]Man
Outline: as §1

Man(a1-2)Man(a1-3)Man = biological target: Man(a1-2)Man(a1-3)Man
Outline: as §1

[20] = biological target: Man(a1-2)Man(a1-3)[Man(a1-2)Man(a1-6)]Man
Outline: as §1

[21] = biological target: Man(a1-2)Man(a1-3)[Man(a1-2)Man(a1-6)]Man(a1-6)[Man(a1-2)Man(a1-2)Man(a1-3)]Man
Outline: as §1

[22] = biological target: Man(a1-2)Man(a1-3)[Man(a1-2)Man(a1-6)]Man(a1-6)[Man(a1-2)Man(a1-2)Man(a1-3)]Man(b1-4)GlcNAc(b1-4)GlcNAc
Outline: as §1

[23] = biological target: Man(a1-2)Man(a1-3)[Man(a1-6)]Man(a1-6)[Man(a1-2)Man(a1-3)]Man(b1-4)GlcNAc(b1-4)GlcNAc
Outline: as §1

[24] = biological target: Man(a1-2)Man(a1-6)[Man(a1-3)]Man(a1-6)[Man(a1-2)Man(a1-2)Man(a1-3)]Man
Outline: as §1

[25] = biological target: Man(a1-2)Man(a1-6)[Man(a1-3)]Man(a1-6)[Man(a1-2)Man(a1-2)Man(a1-3)]Man(b1-4)GlcNAc(b1-4)GlcNAc
Outline: as §1

Man(a1-3)[Man(a1-6)]Man = biological target: Man(a1-3)[Man(a1-6)]Man
Outline: as §1

[26] = biological target: Man(a1-3)[Man(a1-6)]Man(a1-6)[Man(a1-2)Man(a1-3)]Man(b1-4)GlcNAc(b1-4)GlcNAc
Outline: as §1

[27] = biological target: Man(a1-3)[Man(a1-6)]Man(a1-6)[Man(a1-3)]Man
Outline: as §1

[28] = biological target: Man(a1-3)[Man(a1-6)]Man(a1-6)[Man(a1-3)]Man(b1-4)GlcNAc(b1-4)GlcNAc
Outline: as §1

[29] = biological target: Man(a1-3)[Man(a1-6)]Man(b1-4)GlcNAc(b1-4)GlcNAc
Outline: as §1

[30] = biological target: Man(a1-3)[Man(a1-6)]Man(b1-4)GlcNAc(b1-4)[Fuc(a1-6)]GlcNAc
Outline: as §1

Man(a1-6)Man = biological target: Man(a1-6)Man
Outline: as §1

Man(b1-4)GlcNAc = biological target: Man(b1-4)GlcNAc
Outline: as §1

MurNAc(b1-4)GlcNAc = biological target: MurNAc(b1-4)GlcNAc
Outline: as §1

Neu5Ac(a2-3)Gal = biological target: Neu5Ac(a2-3)Gal
Outline: as §1

B1: Mermaid3 (Stilbonema majum) (protein)
chain: MGSSHHHHHHSSGLVPRGSHMAASGWLRSPQGTVVKLYRRSLSWSKADEFCKDVDGRLVVDRTADMHLFLIKNVLKEKKSRVWVGLRRTASHSRTWIWSDGTRQNEGDLDANLWLRDEPNDAAGEEECALFMYSPWEKAWGLNDYLCRGGCRNYQFICEKWIR
- glycan array binding signal (z-score) [1]: -0.412
- glycan array binding signal (z-score) [2]: -0.391
- glycan array binding signal (z-score) [3]: -0.354
- glycan array binding signal (z-score) [4]: -0.277
- glycan array binding signal (z-score) [5]: -0.346
- glycan array binding signal (z-score) [6]: -0.369
- glycan array binding signal (z-score) (GlcNAc(b1-3)GalNAc): -0.431
- glycan array binding signal (z-score) (GlcNAc(b1-3)Man): 5.11
- glycan array binding signal (z-score) [7]: -0.21
- glycan array binding signal (z-score) [8]: -0.24
- glycan array binding signal (z-score) [9]: -0.276
- glycan array binding signal (z-score) [10]: 0.202
- glycan array binding signal (z-score) (GlcNAc(b1-4)GlcNAc): 1.75
- glycan array binding signal (z-score) [11]: 0.343
- glycan array binding signal (z-score) [12]: 1.14
- glycan array binding signal (z-score) [13]: -0.172
- glycan array binding signal (z-score) [14]: -0.617
- glycan array binding signal (z-score) [15]: 1.72
- glycan array binding signal (z-score) (GlcNAc(b1-6)GalNAc): 0.518
- glycan array binding signal (z-score) [16]: 0.567
- glycan array binding signal (z-score) (Kdn(a2-3)Gal(b1-3)GalNAc): 0.967
- glycan array binding signal (z-score) (Kdn(a2-3)Gal(b1-3)GlcNAc): -0.708
- glycan array binding signal (z-score) (Kdn(a2-3)Gal(b1-4)Glc): 1.11
- glycan array binding signal (z-score) (Kdn(a2-3)Gal(b1-4)GlcNAc): 1.48
- glycan array binding signal (z-score) [17]: 1.12
- glycan array binding signal (z-score) (Kdn(a2-6)Gal(b1-4)GlcNAc): -0.26
- glycan array binding signal (z-score) [18]: -0.704
- glycan array binding signal (z-score) [19]: 0.503
- glycan array binding signal (z-score) (Man(a1-2)Man(a1-3)Man): -0.689
- glycan array binding signal (z-score) [20]: -0.702
- glycan array binding signal (z-score) [21]: -0.191
- glycan array binding signal (z-score) [22]: 1.5
- glycan array binding signal (z-score) [23]: -0.45
- glycan array binding signal (z-score) [24]: -0.681
- glycan array binding signal (z-score) [25]: 0.855
- glycan array binding signal (z-score) (Man(a1-3)[Man(a1-6)]Man): 0.678
- glycan array binding signal (z-score) [26]: 0.577
- glycan array binding signal (z-score) [27]: 3.41
- glycan array binding signal (z-score) [28]: -0.282
- glycan array binding signal (z-score) [29]: -0.62
- glycan array binding signal (z-score) [30]: -0.415
- glycan array binding signal (z-score) (Man(a1-6)Man): 0.744
- glycan array binding signal (z-score) (Man(b1-4)GlcNAc): 4.76
- glycan array binding signal (z-score) (MurNAc(b1-4)GlcNAc): 0.63
- glycan array binding signal (z-score) (Neu5Ac(a2-3)Gal): -0.546
